This data set relates to ATP. The data set is described as follows: switch fluorescence ratio, 500 uM ATP over buffer (Cy3 cluster intensity, sum of 5 cycles each) (fold (ratio)); higher = stronger signal-on switching upon ATP binding; sequences stand for … in TCGTCGGCAGCGTCAGATGTGTATAAGAGACAGTTTTTTTTTTTTTTTTTTTTTTTTT…TC. To be noted: aptamer strand: ATP DNA aptamer (quencher-CACCTGGGGGAGTATTGCGGAGGAAGG + anchor), 100 nM annealed; ATP concentration: 500 uM; one replicate. The procedure, abridged: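 For every switch-domain sequence, the fluorescence ratio is the mean of per-cluster values, each being summed target-cycle Cy3 intensity over summed buffer-cycle Cy3 intensity. Clusters outside 100-1000 RFU were excluded. On a modified Illumina MiSeq flow-cell, the Cy3-labelled switching-strand clusters were annealed to 100 nM quencher-labelled ATP aptamer, imaged in selection buffer and then after 15 min with 500 uM ATP at 22 °C. Five such cycles were run, with NaOH stripping and re-annealing between them.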

Here are results for 120 sequences from the supplement of paper PMC10126150.

Sequences with one replicate were seen in a single cluster, so their values are uncertain.
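Also: ATP exposure 15 min at 22 °C before imaging.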

As for ACTCTGTCTA, the switch fluorescence ratio worked out at 1.26.

Take AGCTCTTCGG: the switch fluorescence ratio was 0.94.

As for AGGGTATACC, the switch fluorescence ratio amounted to 1.02.

Turning to ACTTGTGATG, the switch fluorescence ratio came to 0.981.

As for TCGTTCTGCA, the switch fluorescence ratio came to 1.12.

As for ATAACGGGTG, the switch fluorescence ratio turned out to be 1.16.

Regarding CCCCCCGGTG, the switch fluorescence ratio came out at 2.34.

TGTTTATTAA: the switch fluorescence ratio was 1.01.

As to CTGTGCGACT, the switch fluorescence ratio was 1.02.

On to TGGTCTGAC, for which the switch fluorescence ratio is 1.03.

GCGACAAATG: the switch fluorescence ratio is 0.99.

For the sequence TCAACTGCGA, the switch fluorescence ratio amounted to 1.53.

Take TACGGTAGGT: the switch fluorescence ratio amounted to 1.

Consider ATATTTGCTA, for which the switch fluorescence ratio turned out to be 0.962.

With TATGAAGGTA, the switch fluorescence ratio was 0.942.

Turning to TCGTATACGC, the switch fluorescence ratio is 1.01.

As for AAGGCAAGGA, the switch fluorescence ratio came to 1.06.

In the case of ACCAGTATAG, the switch fluorescence ratio is 1.02.

For the sequence CGAGGTTGTG, the switch fluorescence ratio was determined as 1.04.

For ATCATGTCGT, the switch fluorescence ratio stood at 1.

Turning to ACTCCACGAT, the switch fluorescence ratio amounted to 4.2.

For the sequence AAGTTTTGAA, the switch fluorescence ratio is 0.992.

As for GGCCAGGG, the switch fluorescence ratio turned out to be 1.07.

With ATGCCACCGA, the switch fluorescence ratio was found to be 1.05.

In the case of GAGGCTCTTC, the switch fluorescence ratio was 0.98.

On to AATTAGAGGT, for which the switch fluorescence ratio is 0.95.

For AGGCATGG, the switch fluorescence ratio was found to be 1.1.

For the sequence AGCGTCAAA, the switch fluorescence ratio came out at 0.964.

Regarding GGAGTCGCCG, the switch fluorescence ratio came out at 0.931.

For GGGTGACGTC, the switch fluorescence ratio was found to be 0.995.

On to ATTGTCTCTT, for which the switch fluorescence ratio worked out at 1.02.

TAGCCAGCTA: the switch fluorescence ratio amounted to 0.988.

Take CCTTCCTCG: the switch fluorescence ratio is 2.19.

As to ACTAGGGAGG, the switch fluorescence ratio amounted to 1.04.

In the case of GCCCCCACGT, the switch fluorescence ratio is 1.19.

In the case of CCCTCCTGTG, the switch fluorescence ratio stood at 1.99.

On to TCGGTTTAGT, for which the switch fluorescence ratio was 0.984.

As to GCCGGCTTTA, the switch fluorescence ratio came to 0.968.

As for CTAAAAATTG, the switch fluorescence ratio was 0.919.

With ACTTGAGTAT, the switch fluorescence ratio was found to be 0.975.

Regarding CGTTCGAGGC, the switch fluorescence ratio was determined as 1.03.

As for TTCTTGGGT, the switch fluorescence ratio worked out at 0.98.

Regarding TAAAGCGACG, the switch fluorescence ratio came to 1.02.

With TAAACTAGAA, the switch fluorescence ratio amounted to 0.972.

For TTATCCATGG, the switch fluorescence ratio is 0.959.

As to GCCTCCGTCG, the switch fluorescence ratio was determined as 1.99.

Consider TGGTACAGTT, for which the switch fluorescence ratio amounted to 0.983.

In the case of ACGCTTGGGG, the switch fluorescence ratio is 0.977.

Turning to CAAGCTCAGA, the switch fluorescence ratio is 1.03.

As for GCACGGTAGT, the switch fluorescence ratio was determined as 1.03.

For GCTCTAGAGG, the switch fluorescence ratio was 1.

As to CGTGTACATA, the switch fluorescence ratio worked out at 1.01.

For GGCTGCTAGT, the switch fluorescence ratio was 0.983.

On to TCCCCTAGTC, for which the switch fluorescence ratio amounted to 1.11.

In the case of ATTGAGAATT, the switch fluorescence ratio came to 0.994.

In the case of CCAGTGCACC, the switch fluorescence ratio was found to be 1.08.

With GAGCGAGATG, the switch fluorescence ratio worked out at 1.03.

Turning to GGTAGAGTAG, the switch fluorescence ratio was 1.02.

In the case of TTGCATCGA, the switch fluorescence ratio came out at 1.02.

For AGTTGCCGAC, the switch fluorescence ratio was 1.03.

For TCAGCCCACT, the switch fluorescence ratio is 1.03.

On to ATGGTATGGC, for which the switch fluorescence ratio was determined as 0.958.

For TCTGCCGATT, the switch fluorescence ratio came to 0.992.

In the case of TATGTGAAGA, the switch fluorescence ratio stood at 1.02.

For the sequence CCTAGAGCTG, the switch fluorescence ratio came to 1.12.

Regarding GGCCAGACTC, the switch fluorescence ratio came out at 1.08.

AATGCGTCGA: the switch fluorescence ratio is 1.01.

With TAAGGCATGA, the switch fluorescence ratio came to 0.981.

In the case of AAGGTTAGGC, the switch fluorescence ratio came out at 1.02.

On to TCCTATAGTA, for which the switch fluorescence ratio was 0.979.

Take CGGTACTAAC: the switch fluorescence ratio amounted to 1.14.

Consider TAGAATTCCC, for which the switch fluorescence ratio was 1.03.

With TATATGTCGC, the switch fluorescence ratio turned out to be 0.974.

Regarding TAAGCCTTCC, the switch fluorescence ratio came to 2.55.

Regarding CAGCCAGCAC, the switch fluorescence ratio is 2.04.

Take CAGTCAGCTT: the switch fluorescence ratio was found to be 0.997.

For GTGGCTATGC, the switch fluorescence ratio was determined as 1.02.

GATATTAATA: the switch fluorescence ratio was 0.995.

Regarding GTCGCTACTC, the switch fluorescence ratio is 1.98.

As for CTAGCTAATA, the switch fluorescence ratio is 1.13.

Take AGACAATGAG: the switch fluorescence ratio was found to be 1.03.

As for GAAAGAACGA, the switch fluorescence ratio worked out at 0.992.

With TGCGTGTGCG, the switch fluorescence ratio was determined as 1.02.

Regarding GTGTCTAGGC, the switch fluorescence ratio turned out to be 1.01.

For the sequence CTTTGTAGGT, the switch fluorescence ratio is 0.997.

On to CGGCTACCGT, for which the switch fluorescence ratio came out at 0.956.

ATGGGTGTC: the switch fluorescence ratio is 1.02.

On to TTAGGACTCA, for which the switch fluorescence ratio stood at 1.02.

With AATATTTTAG, the switch fluorescence ratio amounted to 1.

With GCATTAAGG, the switch fluorescence ratio came out at 1.02.

As for TCACCATGCG, the switch fluorescence ratio was determined as 0.969.

Consider ATGATAAGAG, for which the switch fluorescence ratio was 0.987.

Consider GTTAGAGACT, for which the switch fluorescence ratio was found to be 1.

In the case of CGTTCTACCA, the switch fluorescence ratio came out at 0.974.

TTGGGCCTAA: the switch fluorescence ratio was found to be 1.03.

Take GCTTGTCCTT: the switch fluorescence ratio came to 0.985.

In the case of GCTAAACGCC, the switch fluorescence ratio amounted to 1.02.

With AACGAGGGAA, the switch fluorescence ratio came out at 1.03.

As to GAGCAGGGAT, the switch fluorescence ratio is 1.06.

TACATATATT: the switch fluorescence ratio worked out at 1.07.

Regarding GTATGCTGTG, the switch fluorescence ratio worked out at 1.01.

On to GAGTCCACCT, for which the switch fluorescence ratio was found to be 1.12.

Consider AGATAGCAAT, for which the switch fluorescence ratio is 1.91.

As to ATTCCGGTAG, the switch fluorescence ratio was 1.08.

On to TAGACAGGCT, for which the switch fluorescence ratio came out at 0.986.

For the sequence GTATATGGCG, the switch fluorescence ratio is 1.13.

Regarding AGAGCAGCAG, the switch fluorescence ratio is 0.997.

Turning to AGATTGGAGC, the switch fluorescence ratio turned out to be 1.04.

As to TAAGCATGTT, the switch fluorescence ratio came to 1.01.

In the case of TGTCAGGTTT, the switch fluorescence ratio turned out to be 0.979.

AACCCATTGC: the switch fluorescence ratio was 1.07.

For TTGCGGTAGG, the switch fluorescence ratio worked out at 0.958.

Regarding TGCACCAGCC, the switch fluorescence ratio is 1.09.

In the case of AAAGGTCGTA, the switch fluorescence ratio came to 1.02.

TGCTTTAAAA: the switch fluorescence ratio is 0.961.

With AACCAACTA, the switch fluorescence ratio is 1.03.

For TCAGACTGG, the switch fluorescence ratio was 1.03.

Regarding CAGTAGCCTA, the switch fluorescence ratio is 1.12.

On to ACTCTTTACC, for which the switch fluorescence ratio worked out at 1.15.

On to AACGTCTCC, for which the switch fluorescence ratio amounted to 1.11.
